Data on 172 sequences can be found in paper PMC4242493.

Some of the results follow. The list includes weakly bound sequences.

For the assay, the target named is MaxL homodimer (UniProt P61244). In words: universal protein-binding microarray (PBM). Particulars: PBS-based mixture, 10 nM His-tagged protein dimer, 2% milk, 200 ng/uL BSA, 50 ng/uL salmon testes DNA, 0.02% TX-100; detection with Alexa 488 anti-His …; high values mean tight binding; most listed sequences are background and not binding sites; double strand, one strand shown.
Chain of UniProt P61244 (P61244 whole entry): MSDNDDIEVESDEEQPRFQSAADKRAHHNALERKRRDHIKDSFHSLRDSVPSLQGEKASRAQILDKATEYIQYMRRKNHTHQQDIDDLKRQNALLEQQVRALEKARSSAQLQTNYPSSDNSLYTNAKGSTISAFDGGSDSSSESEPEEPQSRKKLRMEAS
On to CGGGTCAG, for which the binding signal (normalized occupancy) was found to be 0.0685.
Then CGCTGGCC, with 0.0737.
Then AGGTTGCA, with 0.0755; and GATAACCA, with 0.0823; and ACTAACGC, with 0.077.
Then ACGGGTTG, with 0.0743; and CGCAGGAG, with 0.0713.
Take ACTCTTAC: the binding signal (normalized occupancy) came out at 0.0755.
Then GGCTCTTA, with 0.0716; and CCTGCACA, with 0.0788.
Then ATTCTCCC, with 0.0806; and TAGGGTCA, with 0.0753; and GATCTGTA, with 0.0768.
To CTCCATTA belongs 0.0776; to CCCCGGGG, 0.0632.
In the case of AACAATTA, the binding signal (normalized occupancy) was determined as 0.0779.
As to ATCACGAA, the binding signal (normalized occupancy) stood at 0.08.
Then CCCCTCAG, with 0.0775; and AGTCTCAG, with 0.0725.
To ATTAAAAT belongs 0.0747.
Then TAGCGCCA, with 0.0742; and TCCGACAA, with 0.071.
On to CGTTACGA, for which the binding signal (normalized occupancy) amounted to 0.0742.
To ATCCGTTC belongs 0.0707; to ACCCGGCA, 0.0737.
Then TATCAGCA, with 0.0749; and ATACCACC, with 0.0834; and CAGGGAAC, with 0.0737.
To TGACCGAA belongs 0.0768; to ACGAAAAT, 0.0764; to GACCTGTA, 0.0781.
On to CTCATCCC, for which the binding signal (normalized occupancy) stood at 0.0745.
Then ACCCACCG, with 0.0804; and ACAAGAGG, with 0.0752.
Then ACTACCCC, with 0.0796; and GCTTAAGA, with 0.0743.
To CGGGTACA belongs 0.0783; to ACCTCTGA, 0.071; to AACTCAGG, 0.0684.
For the sequence ATACCGGA, the binding signal (normalized occupancy) was determined as 0.0808.
Take CTACATCC: the binding signal (normalized occupancy) was 0.0773.
As for CCGTGACG, the binding signal (normalized occupancy) is 0.0782.
Then GCATCACC, with 0.0774.
As to GACTGGGC, the binding signal (normalized occupancy) came out at 0.0696.
Turning to GGTATAAC, the binding signal (normalized occupancy) stood at 0.0766.
To ATAGGCTG belongs 0.0707.
In the case of ATAAAGTC, the binding signal (normalized occupancy) came to 0.0808.
With CTACTAGC, the binding signal (normalized occupancy) was found to be 0.0697.
Then ATGGTAAC, with 0.0835.
Then AGAGCGGC, with 0.0689.
With GGCGTTTA, the binding signal (normalized occupancy) came to 0.0778.
Then AACCTGAC, with 0.0788.
Then TAAAGACA, with 0.0821.
To ACTCGTCT belongs 0.0702; to AGAACCAG, 0.0721.
Take AAACGGAT: the binding signal (normalized occupancy) is 0.0706.
To TCGATCGA belongs 0.0683.
To CCGCTAAA belongs 0.07; to CGTTTAAC, 0.077; to ATTTCCCA, 0.0766.
Then ACGCCCAG, with 0.0752; and GCCACGCA, with 0.0915.
As for ATATGGTC, the binding signal (normalized occupancy) was found to be 0.0896.
To AACTGCGA belongs 0.0693.
Then AAAAGGAT, with 0.0697; and AGCGCAAC, with 0.0679.
Then ATATTGGG, with 0.0787; and AGCTCGAT, with 0.0745; and AAGGTATC, with 0.0767.
As for GCTTTTAC, the binding signal (normalized occupancy) turned out to be 0.0756.
In the case of CCTCCAGC, the binding signal (normalized occupancy) came out at 0.0706.
Then CACAGTAA, with 0.0703.
With CCTTCGAA, the binding signal (normalized occupancy) turned out to be 0.0696.
Then CCTTTGCG, with 0.0727; and GGGCGCCC, with 0.0669.
Consider CAGACTAA, for which the binding signal (normalized occupancy) was 0.0682.
To CGATACGC belongs 0.0818; to GTGTAATA, 0.0829.
Then ATACGATC, with 0.0751; and CTGCCAGC, with 0.0669.
Consider GCATGCCC, for which the binding signal (normalized occupancy) was 0.105.
Then CGTCCTTA, with 0.0691; and CTGAACCC, with 0.0732.
Then ACCTCGAA, with 0.0704; and ATTACCGC, with 0.0757; and AGGTTGTG, with 0.0771.
To CAGTTAGG belongs 0.0719; to ACGGTACT, 0.0723.
In the case of CAGAGCTA, the binding signal (normalized occupancy) came out at 0.0767.
Then GCACAGCA, with 0.0738; and ACACAACC, with 0.0804; and AGTGATAC, with 0.0753.
Then ATCCCGGC, with 0.0718; and GGTATACA, with 0.0795.
Then CCAACTTC, with 0.0726; and CTTTTCAC, with 0.0769.
Regarding CTAAAAGC, the binding signal (normalized occupancy) worked out at 0.0718.
For the sequence ACTTTGTG, the binding signal (normalized occupancy) amounted to 0.0718.
To ACGTTCGA belongs 0.0752; to CATTACAC, 0.083.
To GCTTAGAA belongs 0.0745.
To ACTTCACA belongs 0.0776; to AGTAGAGC, 0.0746; to CGCAGATA, 0.0755.
Turning to GGAGATGA, the binding signal (normalized occupancy) worked out at 0.0755.
Then ACTAAAGA, with 0.0692.
Take CAACTAAG: the binding signal (normalized occupancy) was determined as 0.0704.
To AGGTAAAC belongs 0.0708; to AAGTTCCG, 0.0704; to CACCTTGC, 0.0768.
To GTACTTGA belongs 0.0753; to GGGTCGGA, 0.0765.
To AGCATATC belongs 0.0822; to GAGTCTCC, 0.0664; to CTCAGCAG, 0.0691.
Turning to GTAGATAA, the binding signal (normalized occupancy) was 0.0803.
Then AGACTGCG, with 0.068.
To AGTCTAAT belongs 0.0747; to CAGATCAA, 0.0797; to AGTCATTA, 0.0788.
To AGTGGGAA belongs 0.0701; to GATGGTAA, 0.0776; to TGGGACAA, 0.0715.
For CACAGGTC, the binding signal (normalized occupancy) worked out at 0.0763.
Then TCAGATAA, with 0.0743.
To GCACGTCA belongs 0.0831; to CATGATTA, 0.0873.
Regarding AACACGTC, the binding signal (normalized occupancy) was 0.0786.
As to CTTCTTAC, the binding signal (normalized occupancy) stood at 0.0717.
To CCCCAGGG belongs 0.0693.
Then AGCTGTGG, with 0.0743; and CGACAAAC, with 0.0751; and CCTGCAGA, with 0.0713.
With ATCGTCCC, the binding signal (normalized occupancy) turned out to be 0.0769.
Then AACCGTAG, with 0.0704.
Then CTGCACAC, with 0.0909; and TCGACACA, with 0.0806; and AATTATCA, with 0.0842.
To CAATTACG belongs 0.081; to CCATATGA, 0.0926; to GCCGCTGA, 0.0652.
Regarding ACGATCCG, the binding signal (normalized occupancy) came to 0.0754.
To CTCTCCGC belongs 0.0676.
To GCATCGTA belongs 0.0732.
For the sequence CATCCACC, the binding signal (normalized occupancy) amounted to 0.0815.
To CGAAAACA belongs 0.0797; to AAACGGCC, 0.0649; to CGTAGATA, 0.074.
To AACTGCGG belongs 0.0712; to CGGCGGCA, 0.0666.
Then AAAGTTGA, with 0.0725; and CGATGCTC, with 0.0773.
Consider CCACAGCA, for which the binding signal (normalized occupancy) worked out at 0.0776.
Then ATGGGAAT, with 0.0864; and ATGTTATG, with 0.0822.
As for CCCTTCAC, the binding signal (normalized occupancy) was determined as 0.0768.
Then GCCCTAAC, with 0.0753; and ACTGCTCG, with 0.072; and CGCAGTAA, with 0.0696.
Then ACTTGCAC, with 0.0786; and CGTTAGCC, with 0.0755.
To CTGATCTA belongs 0.072; to CCAACCGC, 0.0755.
Take CGTAAGTA: the binding signal (normalized occupancy) turned out to be 0.0786.
To AATGCATT belongs 0.0797; to ATGGTCGC, 0.0835.
Then GGAAATCA, with 0.0775.
Then ACAGACAA, with 0.0737; and CACCTTTC, with 0.0737; and ATTGGGAC, with 0.0752.
For GGTAGCTA, the binding signal (normalized occupancy) stood at 0.0759.
For the sequence ATATCCCC, the binding signal (normalized occupancy) turned out to be 0.0902.
